The values that follow come from PubChem BioAssay AID1508642 (National Center for Advancing Translational Sciences (NCATS), 2021).

Molecules are shown by their SMILES. In all, about 43,000 compounds went through this assay and about 200 (0.47%) were called active. Inconclusive results (about 12%) are left out. The call rests on the fitted dose curve; in most records, active means well fitted cell-killing curve with a large enough effect; inconclusive means small, poorly fitted or top-dose-only effect, or effect the other way; inactive means flat fitted curve, though single readings scatter. Some of the results follow.
On the % scale 0 is the no-effect control and ±100 the full control effect.

A short description of this assay: Cell viability qHTS assay in S16 Pmp22-F2sN cells. Further: nearly all actives have a fitted effect of over 65% in size. The settings on record: S16 Pmp22-F2sN Schwann cells (luciferase reporters placed in the Pmp22 gene) viability, CellTiter-Glo, 24 h; series mostly up to 57.5 µM; activity change, negative = cytotoxicity: at the top concentration. A digest of the protocol: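 Rat S16 Schwann reporter line, 24 h treatment with library compounds delivered at 23 nL per well. Cell viability by CellTiter-Glo luminescence.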
In general terms: qHTS replaces the single test concentration by a dilution series.
For `CC1=C(C(=O)OCc2ccc(C)cc2)C(c2ccccc2F)CC(=O)N1` (centres undefined), the “activity change, negative = cytotoxicity” value was inactive: -17.5%.
Turning to `Cc1ccc2c(=O)cc(C(=O)Nc3sc4c(c3C(=O)NCc3ccco3)CCC4)oc2c1`, the “activity change, negative = cytotoxicity” value was inactive: 5.34%.
Consider `COc1ccc2c(c1)c(=O)c(C(=O)c1ccccc1)cn2CC(=O)Nc1ccc2c(c1)OCCO2`, for which the “activity change, negative = cytotoxicity” value is inactive: -17.2%.
The figure for `O=C(NCc1ccccc1F)C1CCN(c2nnc(-n3cccc3)s2)CC1` is inactive: 6.37%; for `Cc1cccc(OCCSc2nc3ccccc3n2CC(=O)N2CCOCC2)c1` it is inactive: 0.488%; for `COc1ccccc1CNC(=O)c1ccc(CS(=O)(=O)c2c(Cl)cccc2Cl)o1` it is inactive: 19.6%.
In the case of `COc1cccc(-c2nc(S(=O)(=O)c3ccccc3)c(N3CCCCC3)o2)c1` it was inactive: -38.4%; in that of `CCC(C)NC(=O)CSc1nc2cc3c(cc2c(=O)n1CCCC(=O)NCCc1ccc(OC)c(OC)c1)OCO3` (centres undefined), inactive: -0.905%; in that of `CCCn1c(=O)c2sccc2n2c(CCCC(=O)N3CCN(c4ccccc4OC)CC3)nnc12`, inactive: 1.99%.
Take `CCOC(=O)c1c(C)[nH]c(C)c1S(=O)(=O)N(C)CC(=O)Nc1cc(Cl)ccc1C`: the “activity change, negative = cytotoxicity” value is inactive: 12.7%.
In the case of `CCOC(=O)c1ccc(N2C(=O)c3[nH]nc(-c4ccc(C)cc4)c3C2c2ccc(O)c(OCC)c2)cc1` (centres undefined) it was inactive: -20.2%; in that of `COc1ccc2c(c1)c(=O)c(C(=O)c1ccc(C)c(C)c1)cn2CC(=O)Nc1ccc2c(c1)OCCO2`, inactive: 0.329%.
With `CCOc1ccccc1CNC(=O)CCn1c(=O)c2cccn2c2ccc(F)cc21`, the “activity change, negative = cytotoxicity” value was inactive: 6.02%.
For the compound `Cc1ccc(CNc2nc(-c3ccco3)nn2S(C)(=O)=O)cc1`, the “activity change, negative = cytotoxicity” value was inactive: -0.429%.
For `COc1ccc(Cl)cc1-n1nnc(-c2nc(-c3ccccc3)no2)c1C`, the “activity change, negative = cytotoxicity” value is inactive: 2.69%.
On to `Cn1c(SCC(=O)Nc2ccccc2)nnc1-c1ccccc1`, for which the “activity change, negative = cytotoxicity” value is inactive: -11.2%.
As to `COc1ccc(-c2nc3cc(C(C)C)ccc3o2)cc1NC(=O)c1ccccc1[N+](=O)[O-]`, the “activity change, negative = cytotoxicity” value is inactive: 0.999%.
Take `COc1ccc(C)cc1NC(=O)CN1c2ccccc2S(=O)(=O)c2ccccc21`: the “activity change, negative = cytotoxicity” value was inactive: -5.31%.
Consider `Cc1nnc(N2C(=O)c3oc4ccccc4c(=O)c3C2c2ccc(C(C)(C)C)cc2)s1` (centres undefined), for which the “activity change, negative = cytotoxicity” value is inactive: -1.05%.
In the case of `Cc1ccc(NC(=O)CCOc2ccccc2)cc1` it was inactive: 2.98%; in that of `COc1ccccc1N1CCN(C(=O)Cn2c(=O)n3nc(-c4ccc(C)cc4)nc3c3ccccc32)CC1`, inactive: 1.18%.
For `COc1ccc(NC(=O)c2cccc(N3CCCS3(=O)=O)c2)cc1OC`, the “activity change, negative = cytotoxicity” value is inactive: 5.86%.
Consider `COC(=O)c1ccc(NC(=O)CCS(=O)(=O)c2ccc(Br)s2)cc1`, for which the “activity change, negative = cytotoxicity” value is inactive: -0.539%.
In the case of `Cc1nc(N2CCCC2)ncc1C(=O)NCc1cccc(Cl)c1`, the “activity change, negative = cytotoxicity” value was inactive: 5.02%.
Turning to `CCCN(Cc1cccs1)C(=O)Nc1cc(Cl)ccc1C`, the “activity change, negative = cytotoxicity” value was inactive: 5.88%.
Regarding `Cc1nn(CC(=O)NCc2ccc(F)cc2)c2ccccc12`, the “activity change, negative = cytotoxicity” value was inactive: 9.09%.
In the case of `Cc1ccc2[nH]c3c(=O)n(CC(=O)NCc4ccco4)ncc3c2c1` it was inactive: 1.57%.
The figure for `COc1ccc(Cl)cc1NC(=O)Cn1ncc2c3ccccc3n(C)c2c1=O` is inactive: 0.57%; for `CCOC(=O)c1cccc(NC(=O)CCCn2nc(C)c3c(C)n(-c4ccccc4)nc3c2=O)c1` it is inactive: 1.36%.
Take `CC(=O)Nc1ccc(NC(=O)C2CCN(c3c(NC(C)=O)c(C)nn3-c3ccccc3)CC2)cc1`: the “activity change, negative = cytotoxicity” value is inactive: 6.64%.
In the case of `CCOC(=O)c1c(C)n(-c2ccccc2)c2ccc(OC(=O)c3ccccc3NC(=O)C(C)C)cc12`, the “activity change, negative = cytotoxicity” value is inactive: -5.51%.
Consider `CCOC(=O)c1ccc2nc(C)cc(Nc3cccc(C(=O)O)c3)c2c1`, for which the “activity change, negative = cytotoxicity” value is inactive: -4.61%.
The figure for `O=C(NCc1ccc(Cl)cc1)c1ccc2c(Cl)c3c(nc2c1)CCCC3` is inactive: 20.9%.
`Cc1ccc(C)c(N2CCN(C(=O)CCC(=O)Nc3ccc4nc(N5CCCCC5)cc(C)c4c3)CC2)c1`: the “activity change, negative = cytotoxicity” value was inactive: -22.9%.
For `Cc1ccc(OCCSc2nnc(-c3cccs3)o2)cc1Cl`, the “activity change, negative = cytotoxicity” value is inactive: 2.48%.
Take `CC(=O)Nc1ccc(NC(=O)C2CCCN(S(=O)(=O)c3ccc4c(c3)CCCC(=O)N4)C2)cc1` (centres undefined): the “activity change, negative = cytotoxicity” value is inactive: 7.86%.
On to `Cc1cc(N2CCN(c3cccc(C)c3C)CC2)n2cnnc2n1`, for which the “activity change, negative = cytotoxicity” value was inactive: -16.6%.
In the case of `CCOC(=O)c1cnn(-c2ccc(C(=O)Nc3ccc(OC(F)(F)F)cc3)cc2)c1N` it was inactive: -0.71%; in that of `CCCCN(C)CCNC(=O)c1ccc(Cn2c(=O)[nH]c3cc(OC)c(OC)cc3c2=O)cc1`, inactive: -0.235%; in that of `Cc1cccc(NC(=O)Nc2ccc(F)cc2)n1`, inactive: 3.27%.
In the case of `Cc1ccc(N(CC(=O)NCCc2ccccc2C)S(=O)(=O)N(C)C)cc1` it was inactive: 0.845%.
Turning to `COc1ccccc1CNC(=O)c1cccc(N2CCCS2(=O)=O)c1`, the “activity change, negative = cytotoxicity” value is inactive: 4.2%.
Take `CCOC(=O)c1ccc(NC(=O)C2CC(=O)NC(=Nc3ccc(C)c(C)c3)S2)cc1` (centres undefined): the “activity change, negative = cytotoxicity” value is inactive: 3.58%.
On to `COc1ccccc1CNC(=O)Cn1c(=O)oc2cc(S(=O)(=O)N3CCCC3)ccc21`, for which the “activity change, negative = cytotoxicity” value was inactive: -4.75%.
Turning to `CCc1nc2nc(C)cc(Nc3cc(Cl)ccc3C)n2n1`, the “activity change, negative = cytotoxicity” value was inactive: -5.19%.
As for `COc1ccc(-c2noc(N(c3ccc(F)c(Cl)c3)c3nc(-c4ccc(OC)c(OC)c4)no3)n2)cc1OC`, the “activity change, negative = cytotoxicity” value is inactive: 3.49%.
On to `COc1cc(-c2nc(S(=O)(=O)c3ccc(Br)cc3)c(N3CCOCC3)o2)cc(OC)c1OC`, for which the “activity change, negative = cytotoxicity” value is inactive: -3.39%.
With `COc1ccc(Br)cc1C(=O)Nc1cccc2ccc(C)nc12`, the “activity change, negative = cytotoxicity” value is inactive: 0.204%.
For `CCOc1ccc(CCNC(=O)CCc2c(C)nc3c(c(C)nn3-c3ccc(C)c(C)c3)c2C)cc1`, the “activity change, negative = cytotoxicity” value was inactive: -12.8%.
